Drawing on the antibiotic and cytotoxicity screens of Wong et al. (2023), this text covers cytotoxicity call and growth inhibition call for 26 compounds.

The other results are listed elsewhere or left out.

The test system of one assay is HSkMC. Put plainly: cytotoxicity call (relative viability < 0.9). Conditions: 10 µM.
A further assay has as its system HepG2. Description: cytotoxicity call (relative viability < 0.9). To be noted: 10 µM.
For another assay, the system named is S. aureus RN4220. Description: growth inhibition call (relative growth <= 0.2). Conditions: 50 µM.

With `C[C@H]1CCCCO[C@H](CN(C)Cc2ccc(C(=O)O)cc2)[C@@H](C)CN([C@@H](C)CO)C(=O)c2cc(NS(=O)(=O)c3ccccc3)ccc2O1`, the cytotoxicity call in the assay on HSkMC and in the assay on HepG2 was “inactive” each time. The growth inhibition call with S. aureus RN4220 is “inactive”.
With `C[C@@H]1CCCCO[C@H](CN(C)C(=O)Nc2cccc3ccccc23)[C@@H](C)CN([C@H](C)CO)C(=O)c2cc(NC(=O)Nc3ccc(C(F)(F)F)cc3)ccc2O1`, the cytotoxicity call in the assay with HSkMC and in the assay on HepG2 was “inactive” each time. In the assay with S. aureus RN4220, the growth inhibition call is “inactive”.
Consider `COc1ccc(CN(C)C[C@@H]2OCCCC[C@@H](C)Oc3ccc(NS(=O)(=O)c4c(C)noc4C)cc3C(=O)N([C@H](C)CO)C[C@@H]2C)cc1`, for which the cytotoxicity call with HSkMC and with HepG2 was “inactive” each time. In addition, in the assay with S. aureus RN4220, the growth inhibition call was “inactive”.
As to `COc1ccc(S(=O)(=O)N(C)C[C@@H]2OCCCC[C@@H](C)Oc3ccc(NC(=O)Nc4ccccc4)cc3C(=O)N([C@@H](C)CO)C[C@H]2C)cc1`, the cytotoxicity call in the assay on HSkMC and with HepG2 was “inactive” each time. Moreover, the growth inhibition call with S. aureus RN4220 was “inactive”.
In the case of `C[C@H]1CN([C@@H](C)CO)C(=O)Cc2cc(NC(=O)Cc3ccccc3)ccc2O[C@H]1CN(C)S(=O)(=O)c1ccccc1`, the cytotoxicity call in the assay on HSkMC and in the assay on HepG2 was “inactive” each time. The growth inhibition call in the assay on S. aureus RN4220 is “inactive”.
As for `CC(C)C#Cc1ccc2c(c1)O[C@H](CN(C)C(=O)Cc1ccccn1)[C@H](C)CN([C@H](C)CO)S2(=O)=O`, the cytotoxicity call with HSkMC and in the assay on HepG2 was “inactive” each time. In addition, the growth inhibition call in the assay on S. aureus RN4220 is “inactive”.
As to `C[C@@H]1CN([C@H](C)CO)S(=O)(=O)c2ccc(C#CCN(C)C)cc2O[C@@H]1CN(C)Cc1cccnc1`, the cytotoxicity call in the assay with HSkMC and in the assay on HepG2 was “inactive” each time. Besides, in the assay with S. aureus RN4220, the growth inhibition call is “inactive”.
With `O=C(C[C@H]1C=C[C@H](NS(=O)(=O)c2ccc(F)cc2)[C@H](CO)O1)NCCN1CCCCC1`, the cytotoxicity call with HSkMC and with HepG2 was “inactive” in each case. Further, in the assay on S. aureus RN4220, the growth inhibition call was “inactive”.
As for `CO[C@H]1CN(C)C(=O)c2cc(NC(=O)C3CCOCC3)ccc2OC[C@@H](C)N(Cc2cccnc2)C[C@@H]1C`, the cytotoxicity call in the assay with HSkMC and with HepG2 was “inactive” in each case. In addition, in the assay with S. aureus RN4220, the growth inhibition call was “inactive”.
In the case of `C[C@@H]1CCCCO[C@@H](CN(C)Cc2ccncc2)[C@H](C)CN([C@H](C)CO)C(=O)c2cc(NC(=O)Nc3cccc4ccccc34)ccc2O1`, the cytotoxicity call with HSkMC and in the assay with HepG2 was “inactive” each time. In addition, in the assay with S. aureus RN4220, the growth inhibition call was “inactive”.
`C[C@H](CO)N1C[C@H](C)[C@H](CN(C)S(=O)(=O)c2ccc(Cl)cc2)OCCCC[C@H](C)Oc2ccc(NC(=O)Nc3ccc(F)cc3)cc2C1=O`: the cytotoxicity call in the assay with HSkMC and in the assay on HepG2 was “inactive” throughout. Besides, in the assay with S. aureus RN4220, the growth inhibition call was “inactive”.
`Cc1noc(C)c1S(=O)(=O)Nc1ccc2c(c1)CC(=O)N([C@@H](C)CO)C[C@H](C)[C@H](CN(C)Cc1ccc(C(=O)O)cc1)O2`: the cytotoxicity call in the assay with HSkMC and in the assay on HepG2 was “inactive” in each case. Also, the growth inhibition call with S. aureus RN4220 was “inactive”.
On to `C[C@@H]1CN([C@H](C)CO)S(=O)(=O)c2ccc(C#CCN(C)C)cc2O[C@H]1CN(C)Cc1ccncc1`, for which the cytotoxicity call with HSkMC and with HepG2 was “inactive” each time. Moreover, the growth inhibition call in the assay with S. aureus RN4220 is “inactive”.
On to `Cc1ccc2nc(-c3ccc(/N=C\c4ccc[nH]4)cc3)sc2c1`, for which, in the assay on HSkMC, the cytotoxicity call is “inactive”. Also, in the assay on HepG2, the cytotoxicity call was “active”. In addition, in the assay with S. aureus RN4220, the growth inhibition call is “inactive”.
With `O=C(C[C@H]1CC[C@H]2[C@@H](COC[C@@H](O)CN2S(=O)(=O)c2ccc(F)cc2)O1)NCCN1CCCCC1`, the cytotoxicity call in the assay on HSkMC and in the assay with HepG2 was “inactive” in each case. Besides, in the assay with S. aureus RN4220, the growth inhibition call is “inactive”.
`C[C@H](CO)N1C[C@H](C)[C@@H](CN(C)Cc2ccc(C(F)(F)F)cc2)Oc2c(NC(=O)C3CCCCC3)cccc2C1=O`: the cytotoxicity call in the assay with HSkMC and in the assay on HepG2 was “inactive” each time. In addition, the growth inhibition call in the assay on S. aureus RN4220 was “inactive”.
Regarding `Cn1cc(CO)cn1`, the cytotoxicity call in the assay with HSkMC and with HepG2 was “inactive” in each case. For the same compound, the growth inhibition call with S. aureus RN4220 was “inactive”.
Take `C[C@@H]1CN([C@@H](C)CO)C(=O)c2cccc(NC(=O)C3CCOCC3)c2O[C@@H]1CN(C)Cc1ccncc1`: the cytotoxicity call in the assay on HSkMC and in the assay with HepG2 was “inactive” each time. In addition, in the assay with S. aureus RN4220, the growth inhibition call was “inactive”.
With `NCC[C@H](O)C(=O)N[C@@H]1C[C@H](N)[C@@H](O[C@H]2O[C@H](CN)[C@@H](O)[C@H](O)[C@H]2O)[C@H](O)[C@H]1O[C@H]1O[C@H](CO)[C@@H](O)[C@H](N)[C@H]1O`, the cytotoxicity call in the assay with HSkMC and in the assay on HepG2 was “inactive” throughout. For the same compound, the growth inhibition call in the assay with S. aureus RN4220 is “active”.
Consider `Cn1cccc1[C@@H](CN)N1CCc2ccccc2C1`, for which the cytotoxicity call in the assay on HSkMC and in the assay with HepG2 was “inactive” each time. Besides, the growth inhibition call with S. aureus RN4220 was “inactive”.
Turning to `c1cc2c(cc1-c1nn[nH]n1)OCO2`, the cytotoxicity call in the assay on HSkMC (human skeletal muscle cells) and in the assay with HepG2 was “inactive” each time. The growth inhibition call in the assay on S. aureus RN4220 is “inactive”.
As to `C[C@@H]1CCCCO[C@@H](CN(C)S(=O)(=O)c2ccc(Cl)cc2)[C@H](C)CN([C@H](C)CO)C(=O)c2cc(NC(=O)Nc3ccccc3)ccc2O1`, the cytotoxicity call in the assay with HSkMC and in the assay on HepG2 was “inactive” in each case. Besides, the growth inhibition call with S. aureus RN4220 is “inactive”.
As for `C[C@@H]1CN([C@H](C)CO)C(=O)CCCn2nncc2CO[C@@H]1CN(C)S(=O)(=O)c1ccc(Oc2ccccc2)nc1`, the cytotoxicity call with HSkMC and in the assay on HepG2 was “inactive” in each case. Besides, in the assay with S. aureus RN4220, the growth inhibition call is “inactive”.
As to `Cc1noc(C)c1NC(=O)Nc1ccc2c(c1)C(=O)N([C@@H](C)CO)C[C@H](C)[C@H](CN(C)Cc1ccc(C(F)(F)F)cc1)O2`, the cytotoxicity call in the assay with HSkMC and in the assay on HepG2 was “inactive” throughout. Moreover, the growth inhibition call with S. aureus RN4220 is “inactive”.
On to `C[C@@H]1CN([C@@H](C)CO)C(=O)c2cc(NC(=O)c3ccccc3)ccc2O[C@@H](C)CCCCO[C@@H]1CN(C)S(=O)(=O)c1ccc(F)cc1`, for which the cytotoxicity call in the assay with HSkMC and in the assay with HepG2 was “inactive” throughout. Moreover, the growth inhibition call in the assay with S. aureus RN4220 is “inactive”.
`C[C@@H]1CCCCO[C@H](CN(C)Cc2ccncc2)[C@H](C)CN([C@H](C)CO)C(=O)c2cc(NC(=O)Nc3ccc(C(F)(F)F)cc3)ccc2O1`: the cytotoxicity call in the assay with HSkMC was “inactive”. In the assay with HepG2, the cytotoxicity call is “active”. For the same compound, in the assay on S. aureus RN4220, the growth inhibition call is “inactive”.
